Counter-ions that a name gives are not always drawn. ± gives the standard deviation of the averaged measurements. In all, about 1,900 compounds were measured (“normalised cell viability (NPI; 0 = phenylarsine oxide control, 1 = DMSO control)”: median about 1, lowest 2% from about 0.039 on). This is one part of the list.
Tested on: NCI-H1944
Experiment: normalised cell viability (NPI; 0 = phenylarsine oxide control, 1 = DMSO control) (fraction of DMSO control); NCI-H1944 is a non-small cell lung cancer line; higher = more viable cells (less compound toxicity)
Settings: 6 days
[1] = glucocorticoid arm: hydrocortisone 2.75 uM co-treatment, compound 1 µM
[2] = glucocorticoid arm: hydrocortisone 2.75 uM co-treatment, compound 5 µM
[3] = glucocorticoid arm: hydrocortisone 2.75 uM pre-treated 2 days and continued, compound 1 µM
[4] = glucocorticoid arm: hydrocortisone 2.75 uM pre-treated 2 days and continued, compound 5 µM
[5] = glucocorticoid arm: vehicle, compound 1 µM
[6] = glucocorticoid arm: vehicle, compound 5 µM
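Also: CTB read-out in 384-well plates, mean of triplicate wells, normalised per plate against 1 µM phenylarsine oxide and 0.1% DMSO, compounds added 24 h after seeding.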

Row | SMILES | normalised cell viability [1] | normalised cell viability [2] | normalised cell viability [3] | normalised cell viability [4] | normalised cell viability [5] | normalised cell viability [6]
1 | CN1CCc2c(c3ccccc3n2Cc2ccc(C(=O)NO)cc2)C1 [Tubastatin A HCl] | 0.9623 ± 0.0086 | 0.859 ± 0.016 | 0.967 ± 0.0035 | 0.913 ± 0.025 | 0.999 ± 0.01 | 0.9903 ± 0.0042
2 | CN1CCc2c(c3ccccc3n2Cc2ccc(C(=O)NO)cc2)C1 [Tubastatin A] | 0.984 ± 0.013 | 0.983 ± 0.026 | 0.983 ± 0.023 | 1.01 ± 0.023 | 0.991 ± 0.011 | 0.9927 ± 0.0063
3 | CN1C(=O)CC[C@H]1c1cccnc1 [(-)-Cotinine] | 0.995 ± 0.018 | 1.02 ± 0.01 | 1 ± 0.011 | 1.01 ± 0.014 | 1.005 ± 0.0087 | 1.03 ± 0.044
4 | Cc1c(CN2CCN(C(=O)[C@H](C)O)CC2)sc2c(N3CCOCC3)nc(-c3cnc(N)nc3)nc12 | 0.631 ± 0.017 | 0.433 ± 0.034 | 0.59 ± 0.02 | 0.399 ± 0.076 | 0.757 ± 0.035 | 0.552 ± 0.033
5 | COc1cc2nccc(Oc3ccc(NC(=O)NC4CC4)c(Cl)c3)c2cc1C(N)=O [E7080 (Lenvatinib)] | 0.96 ± 0.012 | 0.951 ± 0.031 | 0.945 ± 0.011 | 0.9333 ± 0.009 | 1.007 ± 0.0058 | 1 ± 0.016
6 | c1nc2c(NC3CCCCC3)nc(Nc3ccc(N4CCOCC4)cc3)nc2[nH]1 [Reversine] | 0.864 ± 0.027 | 0.508 ± 0.0076 | 0.92 ± 0.01 | 0.586 ± 0.017 | 0.33 ± 0.022 | 0.201 ± 0.022
7 | CCn1c(=O)[nH]c2cc(Cl)c(Cl)cc21 | 0.9863 ± 0.0055 | 0.97 ± 0.02 | 0.972 ± 0.04 | 0.954 ± 0.012 | 0.9877 ± 0.0015 | 0.988 ± 0.0044
8 | Cc1cc(NC(=O)Nc2ccc3c(ccn3C)c2)sn1 | 1.017 ± 0.0058 | 0.995 ± 0.013 | 1.003 ± 0.0058 | 1.01 ± 0.015 | 0.9797 ± 0.0021 | 0.993 ± 0.0061
9 | COC(=O)[C@H](NC(=O)c1cc(-c2ccccc2)nc2ccccc12)c1ccccc1 | 1 ± 0.016 | 1.02 ± 0.011 | 1.013 ± 0.0058 | 1.03 | 0.999 ± 0.0017 | 1.01
10 | N#Cc1cc2nc(O)c(O)nc2cc1[N+](=O)[O-] [CNQX disodium] | 0.995 ± 0.018 | 0.983 ± 0.02 | 1.002 ± 0.0072 | 1 ± 0.016 | 0.994 ± 0.0053 | 0.9973 ± 0.0015
11 | CN(C)C(N)=NCCC[C@H](N)C(=O)O [N^G,N^G-Dimethylarginine dihydrochloride] | 0.99967 ± 0.00058 | 0.998 ± 0.013 | 1 ± 0.02 | 1 ± 0.011 | 1.003 ± 0.0058 | 1 ± 0.0095
12 | C[C@@H](CN1CCC(Cc2ccccc2)CC1)[C@@H](O)c1ccc(O)cc1 [Ro 25-6981 hydrochloride] | 0.9373 ± 0.0078 | 1.13 ± 0.059 | 1.01 ± 0.02 | 1.14 ± 0.017 | 1.003 ± 0.0058 | 0.8997 ± 0.006
13 | CNc1nc(Nc2cn(C(C)(C)C#N)nc2C)ncc1C(F)(F)F | 1.01 ± 0.011 | 1.02 ± 0.026 | 1.02 | 1.03 ± 0.011 | 1 | 1.01 ± 0.013
14 | N[C@@H](CS(=O)O)C(=O)O [L-Cysteinesulfinic Acid] | 1.001 ± 0.009 | 0.987 ± 0.024 | 0.984 ± 0.014 | 0.99 ± 0.011 | 0.9693 ± 0.0051 | 0.985 ± 0.001
15 | COCCCN1CCC(NC(=O)c2cc(Cl)c(N)c3c2OCC3)CC1 [Prucalopride] | 1.03 ± 0.011 | 1.02 ± 0.01 | 1.02 ± 0.023 | 1.02 ± 0.022 | 1.003 ± 0.0061 | 0.997 ± 0.0052
16 | O=C(Cc1ccc(Cl)c(Cl)c1)OCCN1CCCC1 [AC 915 oxalate] | 0.991 ± 0.013 | 1.013 ± 0.0058 | 0.9883 ± 0.0087 | 0.991 ± 0.028 | 0.986 ± 0.013 | 0.98 ± 0.006
17 | Cc1cc(CN2CCN(c3c(Br)cnc4nc(-c5ccc(N6CCN(C)CC6)cc5)[nH]c34)CC2)no1 | 0.9427 ± 0.0094 | 0.868 ± 0.014 | 0.978 ± 0.029 | 0.994 ± 0.018 | 0.679 ± 0.1 | 0.371 ± 0.04
18 | Cc1ccc(=O)n(-c2ccccc2)c1 [Pirfenidone] | 0.989 ± 0.004 | 0.956 ± 0.02 | 1.001 ± 0.009 | 1.02 ± 0.071 | 0.9853 ± 0.0038 | 0.998 ± 0.012
19 | NO [Hydroxylamine hydrochloride] | 1.001 ± 0.009 | 0.993 ± 0.0061 | 0.9997 ± 0.0096 | 0.992 ± 0.031 | 1.007 ± 0.0058 | 1.01
20 | Nc1nc(Cl)nc2c1ncn2[C@@H]1O[C@H](CO)[C@@H](O)[C@H]1O [2-Chloroadenosine] | 0.998 ± 0.013 | 0.982 ± 0.011 | 0.998 ± 0.011 | 0.974 ± 0.052 | 0.9847 ± 0.0078 | 0.9883 ± 0.0078
21 | O=c1[nH]c2ccccc2n1CCCN1CCN(C(c2ccccc2)c2ccccc2)CC1 [Oxatomide] | 1.003 ± 0.0058 | 0.998 ± 0.06 | 1.01 ± 0.015 | 1.05 ± 0.067 | 1.013 ± 0.0058 | 1.023 ± 0.0058
22 | Nc1cc(Cl)c(NC2=NCCN2)c(Cl)c1 [p-Aminoclonidine hydrochloride] | 0.9767 ± 0.004 | 0.9917 ± 0.0085 | 0.978 ± 0.0095 | 0.978 ± 0.028 | 0.9917 ± 0.0072 | 0.987 ± 0.0017
23 | C[N+](C)(C)CC(=O)O [Betaine hydrochloride] | 1.013 ± 0.0058 | 1.02 ± 0.011 | 1.01 | 0.9845 ± 0.00071 | 0.9727 ± 0.0061 | 0.9897 ± 0.0055
24 | CC[C@H](CO)Nc1nc(NCc2ccccc2)c2ncn(C(C)C)c2n1 [Roscovitine] | 0.999 ± 0.001 | 0.957 ± 0.021 | 1.03 ± 0.029 | 1.06 ± 0.015 | 1 ± 0.01 | 0.9457 ± 0.0031
25 | OCCN(CCO)c1nc(N2CCCCC2)c2nc(N(CCO)CCO)nc(N3CCCCC3)c2n1 [Dipyridamole] | 1.006 ± 0.0075 | 0.987 ± 0.02 | 1.01 | 1 ± 0.011 | 0.9933 ± 0.004 | 1.01
26 | Cc1ccc(NC(=O)c2cccc(C(C)(C)C#N)c2)cc1Nc1ccc2ncn(C)c(=O)c2c1 | 0.727 ± 0.064 | 0.58 ± 0.032 | 0.775 ± 0.016 | 0.678 ± 0.051 | 0.9443 ± 0.0058 | 0.685 ± 0.037

From the supplement of paper PMC8285479
